# Values of other authors in EP1134585B1, “Biosensor and method for the monitoring of herbicides” (CONSIGLIO NAZIONALE DELLE RICERCHE, priority 2000, dated 2001).
# Read-outs that look alike come from different tables or passages of the source.
# How the values were obtained:
# [1] = test system: D1 protein Ser265(264)->Ala; conditions: Euglena, code ZR; cited from earlier work
# [2] = test system: D1 protein Val219->Ile A1a251->Thr; conditions: codes LA, L6 L7; cited from earlier work
# [3] = test system: D1 protein Val219->Ile Thr220->Ala Ser270->Phe; conditions: code L3; cited from earlier work
# [4] = test system: D1 protein Val219->Ile A1a251->Val Asn266->Thr; conditions: code L2; cited from earlier work
# [5] = test system: D1 protein Val219->lIe la251->Val; conditions: codes LI, L8; cited from earlier work
# [6] = test system: D1 protein Val219->Ile Thr220->Ala Ser270->Tyr; conditions: code L5; cited from earlier work
# D1 protein Arg263->Gly = conditions: cited from earlier work
# D1 protein Asn266->Thr = target: T1, D1 protein Asn266->Thr (Synechocystis sp., UniProt P14660, N266T); conditions: code loxl; cited from earlier work
# T1 construct: host or cells: mutant Synechocystis PCC6714
# D1 protein Ser264->Gly [7] = conditions: Amarenthus hybridus; cited from earlier work
# D1 protein Set264->Gly = conditions: Brassica camptestrsl; cited from earlier work
# D1 protein Ser264->Thr [8] = conditions: Euglena, code MSI; cited from earlier work
# D1 protein Ser264->Ala [9] = target: D1 protein Ser264->Ala (Synechococcus elongatus, UniProt P04996, S264A); conditions: Synechococcus sp. PCC7942, code Dil; cited from earlier work
# D1 protein Ser264->Thr [10] = conditions: Nicotiana tabacum (cell culture); cited from earlier work
# D1 protein Ser264→Gly = conditions: cited from earlier work
# D1 protein Ile248->Thr = conditions: code M30; cited from earlier work
# [11] = target: T2, D1 protein Phe211->Ser Ala251->Val (Synechocystis sp., UniProt P14660, A251V/F211S); conditions: code AzV; cited from earlier work
# T2 construct: host or cells: mutant Synechocystis PCC6714
# D1 protein Ala251-Val = conditions: Synechocystis PCC6714, code M35; cited from earlier work
# D1 protein Ser264->Ala [12] = conditions: Synechocistis sp. PCC6714, code DCMU IIA; cited from earlier work
# D1 protein Ser264->Gly [13] = conditions: Amaranthus bouchoniil; cited from earlier work
compound,measurement,setting,value
c1cnc2c(c1)ccc1cccnc12 [o-Phenanthroline],R/S Resistance,[1],o-Phenathroline 5
CCC(C)c1cc([N+](=O)[O-])cc([N+](=O)[O-])c1O (stereo not shown) [Dinoseb],R/S Resistance,[2],Dinoseb 4-8
same,R/S Resistance,[3],"Dinoseb 1,1"
same,R/S Resistance,[4],Dinoseb 10
CCC(=O)Nc1ccc(Cl)c(Cl)c1 [Propanil],R/S Resistance,[2],Propanil 2-71
same,R/S Resistance,[5],Propanil 14-15
same,R/S Resistance,[6],Propanil 13
same,R/S Resistance,[3],Propanil 2
same,R/S Resistance,[4],Propanil 2
CC1CCCCC1NC(=O)Nc1ccccc1 (stereo not shown) [Siduron],R/S Resistance,[1],"Siduron 2,5"
CCNc1nc(NC(C)(C)C)nc(SC)n1 [Terbutryn],R/S Resistance,D1 protein Arg263->Gly,Terbutryn 8
N#Cc1cc(Br)c(O)c(Br)c1 [Bromoxynil],R/S Resistance,D1 protein Asn266->Thr,Bromoxynil 15
CCNc1nc(NC(C)C)nc(SC)n1 [Ametryn],R/S Resistance,D1 protein Ser264->Gly [7],Ametryn 500
same,R/S Resistance,D1 protein Set264->Gly,Ametryn 600
CN(C)C(=O)Nc1ccc(Oc2ccc(Cl)cc2)cc1 [Chloroxuron],R/S Resistance,[1],Chloroxuron 480
same,R/S Resistance,D1 protein Ser264->Gly [7],Chloroxuron 3
CNC(=O)Nc1nc2ccccc2s1 [Benzthiazuron],R/S Resistance,D1 protein Ser264->Thr [8],Berrzthiazuron 20
CCCCN(C)C(=O)Nc1ccc(Cl)c(Cl)c1 [Neburon],R/S Resistance,[1],"Neburon 2,3"
CCC(C)n1c(=O)[nH]c(C)c(Br)c1=O (stereo not shown) [Bromacil],R/S Resistance,D1 protein Ser264->Ala [9],Bromacil 33
same,R/S Resistance,D1 protein Ser264->Gly [7],Bromacil 20
same,R/S Resistance,D1 protein Set264->Gly,Bromacil 40
same,R/S Resistance,D1 protein Ser264->Thr [10],Bromacil 64
same,R/S Resistance,[2],Bromacil 2-25
same,R/S Resistance,[5],Bromacil 15-20
same,R/S Resistance,[6],Bromacil 2
same,R/S Resistance,[3],Bromacil 5
same,R/S Resistance,[4],Bromacil 120
CC(C)Cc1cc([N+](=O)[O-])cc([N+](=O)[O-])c1O [i-Dinoseb],Supersensitivity R/S,D1 protein Ser264→Gly,"i-Dinoseb 0,5"
CSc1nnc(C(C)(C)C)c(=O)n1N [Metribuzin],R/S Resistance,D1 protein Ile248->Thr,Metribuzin 28
same,R/S Resistance,D1 protein Ser264->Ala [9],Metribuzin 5000
same,R/S Resistance,D1 protein Ser264->Thr [10],Metribuzin 290
same,R/S Resistance,D1 protein Ser264->Thr [8],Metribuzin 63
same,R/S Resistance,[11],Metnbuzin 4000
same,R/S Resistance,[2],Metribuzin 6-794
same,R/S Resistance,[6],Metribuzin 25
same,R/S Resistance,[3],Metribuzin 25
same,R/S Resistance,[4],Metribuzin 251
same,R/S Resistance,D1 protein Ala251-Val,Metribuzin 200
same,R/S Resistance,D1 protein Ser264->Ala [12],Metribuzin >3000
O=c1[nH]c2c(c(=O)n1C1CCCCC1)CCC2 [Lenacil],R/S Resistance,D1 protein Ser264->Gly [7],Lenadi 1880-2040
same,R/S Resistance,D1 protein Ser264->Gly [13],"Lanacil 4,4"
CN(C)C(=O)Nc1ccccc1 [Fenuron],R/S Resistance,D1 protein Ser264->Gly [7],"Fenuron 1,1-1,4"
same,R/S Resistance,D1 protein Ser264->Gly [13],"Fenuron 13,5"
CCNc1nc(NC(C)C)nc(OC)n1 [Atraton],R/S Resistance,D1 protein Ser264->Gly [7],Atraton 100
same,R/S Resistance,D1 protein Set264->Gly,Atraton 800
CC(C)N1C(=O)c2ccccc2NS1(=O)=O [Bentazon],Supersensitivity R/S,D1 protein Ser264->Gly [7],"Bentazon 0,2"
